From publication PMC7819943, “Rice protein-binding microarrays: a tool to detect cis-acting elements near promoter regions in rice”
The other results are listed elsewhere or left out.

What follows are sequences tested against T1, OsWOX13 (Oryza sativa, UniProt Q5QMM3 1-267) (assay: protein-binding microarray (RPBM); PBS, 2% BSA, 51.3 ng/ul salmon testes DNA, 50 uM zinc acetate, 200 nM TF, 25 C, 1 h; high values mean tight binding). Conditions: protein: recombinant; tags: N-terminal polyhistidine and DsRed monomer fusion (pET32a); label: CyDye5-dUTP incorporated in the synthesized complementary strand; 3' TTTTT single-stranded linker to array surface; dsDNA, one strand shown.
T1 sequence: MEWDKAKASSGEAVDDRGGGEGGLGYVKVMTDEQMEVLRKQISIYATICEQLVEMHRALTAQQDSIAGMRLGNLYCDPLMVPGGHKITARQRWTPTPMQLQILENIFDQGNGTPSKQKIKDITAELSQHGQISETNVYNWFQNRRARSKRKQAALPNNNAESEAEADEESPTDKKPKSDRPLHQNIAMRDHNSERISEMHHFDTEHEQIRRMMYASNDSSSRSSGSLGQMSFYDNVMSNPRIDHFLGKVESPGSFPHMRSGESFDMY
Summary of the method: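 The binding signal is fluorescence intensity per feature, in arbitrary units, read on an Axon 4000B scanner. Polyhistidine- and DsRed-tagged transcription factors (N-terminal fusions) from E. coli BL21-CodonPlus were purified on Ni–NTA and applied at 200 nM for 1 h at 25 °C to a double-stranded, BSA-blocked custom Agilent array in buffer with 50 µM zinc acetate.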

Sequence | binding signal
ATCTTGATTGGACGGTCCAGATTTCTCCAATTCTGAACAACGGAGTCACCTAGTGCAG | 39300 fluorescence intensity (a.u.)
GTACTTAACCACAAGTGTCAATCATGTCAATCCCTGCTCACGGAGTCACCTAGTGCAG | 16500 fluorescence intensity (a.u.)
TGAAAACTAACAAATTAAAACAAAACATACAGGGCCCATACGGAGTCACCTAGTGCAG | 4750 fluorescence intensity (a.u.)
TTAACCGATAATTAGTATAATATAGATTGAATTATGTTCGCGGAGTCACCTAGTGCAG | 23800 fluorescence intensity (a.u.)
GCCGGGCCTGATTGGGCCGGAATGGGCCGCCTCCGCCGCCCGGAGTCACCTAGTGCAG | 12300 fluorescence intensity (a.u.)
ACACAATTACACAAACGGTCACCGCGACTGCACGAAGACACGGAGTCACCTAGTGCAG | 3210 fluorescence intensity (a.u.)
CCTTGTCAATTTTCACTCCGTATAAAATAAATAGCTACTTCGGAGTCACCTAGTGCAG | 4240 fluorescence intensity (a.u.)
CAATTAACCCAATCAGCACAAGTCTACATGTCTCCTTCCTCGGAGTCACCTAGTGCAG | 9370 fluorescence intensity (a.u.)
ATGCCCTTCAATTATAACAGGAAGATGTCCAGATTCATAACGGAGTCACCTAGTGCAG | 4400 fluorescence intensity (a.u.)
CTGTCATACATATTATAATTAAATGTAATTATATTTGAAACGGAGTCACCTAGTGCAG | 8220 fluorescence intensity (a.u.)
TCTTGTCATTAATTAATTATTAACGCGGCTAAGGAAATAACGGAGTCACCTAGTGCAG | 23000 fluorescence intensity (a.u.)
TTGAATAATTGATTCATATGTCTTATCATTATTTCTTCTCCGGAGTCACCTAGTGCAG | 44400 fluorescence intensity (a.u.)
TCTGATTATCCTATGCCTGCCGTGTTTAAGTGGTGTGTGTCGGAGTCACCTAGTGCAG | 34600 fluorescence intensity (a.u.)
GGCGACTAATCATGTTCATCACCTGCACACACACAAAATTCGGAGTCACCTAGTGCAG | 6940 fluorescence intensity (a.u.)
AGATTTAATTGTTACGAATACAACGGTGTACTCGGATCGTCGGAGTCACCTAGTGCAG | 20800 fluorescence intensity (a.u.)
TTATATTTTGAATTAGATTAAGTAATTTCATATAGTGGTACGGAGTCACCTAGTGCAG | 3890 fluorescence intensity (a.u.)
ACTGACAGATTTGTAGTTGAGGAATTCAGGGCGTGGTGTACGGAGTCACCTAGTGCAG | 42000 fluorescence intensity (a.u.)
TCCTTAATTGAGCCCATTACCCACATGGGCCGTAGCCCAGCGGAGTCACCTAGTGCAG | 40000 fluorescence intensity (a.u.)
TTTTAACTGGAAATTTGATGATGTAAATTCTTCATAGATTCGGAGTCACCTAGTGCAG | 28800 fluorescence intensity (a.u.)
TACACAAATTGTTTAATCCAAGATCTTTCAATCTTTTCTTCGGAGTCACCTAGTGCAG | 7240 fluorescence intensity (a.u.)
GAGTAATAATCAGCGATCAATAAATACCATCTTCTCCGAGCGGAGTCACCTAGTGCAG | 4210 fluorescence intensity (a.u.)

Sequence | binding signal
GCGTAAGGTGATCACCTGATGATTGCAAATTTGGGTGATCCGGAGTCACCTAGTGCAG | 20000 fluorescence intensity (a.u.)
AGATAAATCATACTTAAATTGCTTTTGATAATAAATCAAGCGGAGTCACCTAGTGCAG | 14500 fluorescence intensity (a.u.)
AACCTCTTCAATTACCAAATTTTACAGGGTAACAATGGCACGGAGTCACCTAGTGCAG | 10400 fluorescence intensity (a.u.)
CTGTTCAATCTCATCCGTCTTCTTCCTGATAGCCATCTTCCGGAGTCACCTAGTGCAG | 6470 fluorescence intensity (a.u.)
GAATCACCCAATTGATATCATGAAATTTGTCCAGTGTTTACGGAGTCACCTAGTGCAG | 3360 fluorescence intensity (a.u.)
GAATTTAATTTGGATTTCGCAATATCCGGACTTTCCAATCCGGAGTCACCTAGTGCAG | 4090 fluorescence intensity (a.u.)
TTTGATGGGAGTTGCGTCATAATCATGAACTTATCAATGGCGGAGTCACCTAGTGCAG | 13500 fluorescence intensity (a.u.)
ATAAATCTATATAATTGTGTGTTCAGATTTATAGCTAAAACGGAGTCACCTAGTGCAG | 6870 fluorescence intensity (a.u.)
ATGATATAATTTCTATTAATCCATATTATTAAATTGCATCCGGAGTCACCTAGTGCAG | 21300 fluorescence intensity (a.u.)
TGGCTTATGATTATGACCTGGAAGTATAACTGTTTCTGGTCGGAGTCACCTAGTGCAG | 5000 fluorescence intensity (a.u.)
CTTGGTCTCTTAATTAGCCATTCAATTTTGTAGTTAAGATCGGAGTCACCTAGTGCAG | 6680 fluorescence intensity (a.u.)
GTGGCATTTAGGTAATTAATTTAGTTTTATTTGTTACCTGCGGAGTCACCTAGTGCAG | 10200 fluorescence intensity (a.u.)
TTAACTTTATAATTTATAAGTTGATTTGTATCTGGATGAACGGAGTCACCTAGTGCAG | 26200 fluorescence intensity (a.u.)
AAATAACGGAAATTAAAATACTATTAAGAGGCTATATCGCCGGAGTCACCTAGTGCAG | 5240 fluorescence intensity (a.u.)
TTCTAAAATTTTAAAGTAACAAATTGCAAGTTATAAACATCGGAGTCACCTAGTGCAG | 3340 fluorescence intensity (a.u.)
TCTTGTGCATAGCATGCGCTGATTGGCCAATATCATATTGCGGAGTCACCTAGTGCAG | 4120 fluorescence intensity (a.u.)
TATAAATTGAAACCATTGAACGTACTTTGTCTTCCCGTCCCGGAGTCACCTAGTGCAG | 31400 fluorescence intensity (a.u.)
GTTCTGATAGATAGACTGATACTGCTACTCTGCATTAGAACGGAGTCACCTAGTGCAG | 41200 fluorescence intensity (a.u.)
ATGGTTTAATTATTGGGTATTTATCATCCAGGCTCATTTACGGAGTCACCTAGTGCAG | 6640 fluorescence intensity (a.u.)
TTGATTGCAGGCACGGTGTTTCATCAGGATCAGTCGTGTCCGGAGTCACCTAGTGCAG | 23600 fluorescence intensity (a.u.)
TAATAATTGATTAAACAGAGCAAATTTTAGCTTGCAGATACGGAGTCACCTAGTGCAG | 48500 fluorescence intensity (a.u.)
